± gives the standard deviation of the averaged measurements. The list shows a part of the results.

In the assay the test system is PfAP2-EXP AP2 domain (GST-tagged). The assay is described as follows: gcPBM binding intensity (ln(normalized median fluorescence intensity)); higher = stronger DNA binding. The procedure, abridged: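 An Agilent 4 × 180k array of primer-extended double-stranded 36-bp intergenic genomic probes, with negative controls, was incubated for 1 h with GST-tagged P. falciparum DNA-binding domains expressed in E. coli. Alexa488 anti-GST antibody detected bound protein, scanned at 488 nm. Binding intensity is the highest Masliner-normalised natural-log median intensity across replicate spots of either probe orientation.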
On to “TATAGTAATATTTGAAGTACAAAATTAAAATAAATA [XGTACX_site7634]”, for which the “gcPBM binding intensity (ln)” value was 8.57 ± 0.33.

For the sequence “TTAAATAGCTGTAATTGTACAAATAAATACATAAAT [XGTACX_site3097]”, the “gcPBM binding intensity (ln)” value was determined as 8.7 ± 0.42.

As to “TTATATAAGGTCTATATATAAATATTAATGATAAGG [TGCATGCA_negctrl_site354]”, the “gcPBM binding intensity (ln)” value was 8.38 ± 0.4.

For the sequence “TTAATATTTTGATGTGTACACATTAAAATAGTTTTA [CACACA_site5712]”, the “gcPBM binding intensity (ln)” value is 8.21 ± 0.36.

For “GGGAGGATATTTCACAGTACCCAGGAAATCTGCGGA [XGTACX_site2555]”, the “gcPBM binding intensity (ln)” value is 8.69 ± 0.49.

Regarding “TAAATATATATATGGTGTACCATTTTGGGTTAATAT [XGTACX_site2706]”, the “gcPBM binding intensity (ln)” value was 8.49 ± 0.3.

Regarding “TATATTATTTTTTATTGTACTTAAAAATATTATTTG [XGTACX_site1443]”, the “gcPBM binding intensity (ln)” value turned out to be 8.46 ± 0.35.

For “AGTTTAAATTAAATTACACACTACGAATAATATATT [CACACA_site7811]”, the “gcPBM binding intensity (ln)” value was 8.43 ± 0.33.

As for AGTATAAGCATTATTGTGCACATAATTATAATTTTT, the “gcPBM binding intensity (ln)” value is 9.1 ± 0.085.

As to “TATTAATCTTTTTTTAAACAAAAAATTAAGCAAATT [CACACA_negctrl_site884]”, the “gcPBM binding intensity (ln)” value came to 8.09 ± 0.38.

Regarding “AATAATGAAACAGGAAAAAAATATTGTTAAAATGTA [XGTACX_negctrl_site400]”, the “gcPBM binding intensity (ln)” value came to 8.85 ± 0.27.

For the sequence “GTTGCAATTAACACTAGTACATATAAGTAGTTTATT [XGTACX_site2063]”, the “gcPBM binding intensity (ln)” value was determined as 8.72 ± 0.18.

“ATTGTTCTCCAAAAGTGTACGTATTATTTTTCTGGA [XGTACX_site1404]”: the “gcPBM binding intensity (ln)” value stood at 8.71 ± 0.43.

As to “TATATATTAATAAATAGTACCCGTGGAATTTATATT [XGTACX_site5855]”, the “gcPBM binding intensity (ln)” value is 8.44 ± 0.38.

On to “AACAAATATATTAACACACAAACATATAAACCAATG [CACACA_site3970]”, for which the “gcPBM binding intensity (ln)” value is 8.86 ± 0.38.

Take “AACTAATAAAAAAAAAGTACACAATATGTAAATAAC [XGTACX_site5263]”: the “gcPBM binding intensity (ln)” value is 8.88 ± 0.39.

With “AAGCGAATATATATCACACACAAAAAAATCAGACTA [CACACA_site2108]”, the “gcPBM binding intensity (ln)” value turned out to be 8.69 ± 0.57.

For the sequence “AATTATTGTGAAGGGAAAACAAAAAAGTTTATAATT [CACACA_negctrl_site1337]”, the “gcPBM binding intensity (ln)” value came to 8.64 ± 0.52.

For “ACCACATTTTTTTTTGCATGTTGTTTAAAAAAAGGC [TGCATGCA_site137]”, the “gcPBM binding intensity (ln)” value stood at 8.78 ± 0.42.

For the sequence “AAATTAATTAAATATACACACATATATAGATATATA [CACACA_site6321]”, the “gcPBM binding intensity (ln)” value came out at 8.32 ± 0.38.

Consider “TATATATTATATATATGTACATACTTTTTACGTTCA [XGTACX_site2493]”, for which the “gcPBM binding intensity (ln)” value is 8.71 ± 0.46.

With “TATATATAATATATATGTACATAATATATTTTATAT [XGTACX_site2909]”, the “gcPBM binding intensity (ln)” value is 8.19 ± 0.29.

For the sequence “TAAAACACTCATGGCACACATAAAACATTTTTATGA [CACACA_site3574]”, the “gcPBM binding intensity (ln)” value was 8.33 ± 0.52.

Take “ATTATTATTTATATGATACACACGTACATATACGCA [CACACA_site3823]”: the “gcPBM binding intensity (ln)” value is 8.39 ± 0.33.

The values above are taken from the supplement of paper PMC11417369.
